Patent publication US20230398151A1 (published 2023)

B1: 18t15-12s (IL-18/TF/IL-15:IL-12/IL-15RαSu protein complex) (other)
chain 1: not shown
chain 2: IWELKKDVYVVELDWYPDAPGEMVVLTCDTPEEDGITWTLDQSSEVLGSGKTLTIQVKEFGDAGQYTCHKGGEVLSHSLLLLHKKEDGIWSTDILKDQKEPKNKTFLRCEAKNYSGRFTCWWLTTISTDLTFSVKSSRGSSDPQGVTCGAATLSAERVRGDNKEYEYSVECQEDSACPAAEESLPIEVMVDAVHKLKYENYTSSFFIRDIIKPDPPKNLQLKPLKNSRQVEVSWEYPDTWSTPHSYFSLTFCVQVQGKSKREKKDRVFTDKTSATVICRKNASISVRAQDRYYSSSWSEWASVPCSGGGGSGGGGSGGGGSRNLPVATPDPGMFPCLHHSQNLLRAVSNMLQKARQTLEFYPCTSEEIDHEDITKDKTSTVEACLPLELTKNESCLNSRETSFITNGSCLASRKTSFMMALCLSSIYEDLKMYQVEFKTMNAKLLMDPKRQIFLDQNMLAVIDELMQALNFNSETVPQKSSLEEPDFYKTKIKLCILLHAFRIRAVTIDRVMSYLNASITCPPPMSVEHADIWVKSYSLYSRERYICNSGFKRKAGTSSLTECVLNKATNVAHWTTPSLKCIR
notes: Secreted from CHO-K1 cells; used as negative control on CD16b cells; also called 18t15-12s complex
B2: TGFRt15-16s21 (TGFR/TF/IL-15:CD16scFv/IL-15RαSu/IL-21 protein complex) (other)
chain 1: IPPHVQKSVNNDMIVTDNNGAVKFPQLCKFCDVRFSTCDNQKSCMSNCSITSICEKPQEVCVAVWRKNDENITLETVCHDPKLPYHDFILEDAASPKCIMKEKKKPGETFFMCSCSSDECNDNIIFSEEYNTSNPDGGGGSGGGGSGGGGSIPPHVQKSVNNDMIVTDNNGAVKFPQLCKFCDVRFSTCDNQKSCMSNCSITSICEKPQEVCVAVWRKNDENITLETVCHDPKLPYHDFILEDAASPKCIMKEKKKPGETFFMCSCSSDECNDNIIFSEEYNTSNPDSGTTNTVAAYNLTWKSTNFKTILEWEPKPVNQVYTVQISTKSGDWKSKCFYTTDTECDLTDEIVKDVKQTYLARVFSYPAGNVESTGSAGEPLYENSPEFTPYLETNLGQPTIQSFEQVGTKVNVTVEDERTLVRRNNTFLSLRDVFGKDLIYTLYYWKSSSSGKKTAKTNTNEFLIDVDKGENYCFSVQAVIPSRTVNRKSTDSPVECMGQEKGEFRE[about 120 residues left out]
chain 2: not shown
B3: 7t15-TGFRs (IL-7/TF/IL-15 with TGFβ Receptor II/IL-15RαSu) (other)
chain 1: not shown
chain 2: IPPHVQKSVNNDMIVTDNNGAVKFPQLCKFCDVRFSTCDNQKSCMSNCSITSICEKPQEVCVAVWRKNDENITLETVCHDPKLPYHDFILEDAASPKCIMKEKKKPGETFFMCSCSSDECNDNIIFSEEYNTSNPDGGGGSGGGGSGGGGSIPPHVQKSVNNDMIVTDNNGAVKFPQLCKFCDVRFSTCDNQKSCMSNCSITSICEKPQEVCVAVWRKNDENITLETVCHDPKLPYHDFILEDAASPKCIMKEKKKPGETFFMCSCSSDECNDNIIFSEEYNTSNPDITCPPPMSVEHADIWVKSYSLYSRERYICNSGFKRKAGTSSLTECVLNKATNVAHWTTPSLKCIR
B4: 2t2 (IL-2/TF/IL-2 single-chain chimeric polypeptide) (other)
chain: [about 150 residues left out]SGTTNTVAAYNLTWKSTNFKTILEWEPKPVNQVYTVQISTKSGDWKSKCFYTTDTECDLTDEIVKDVKQTYLARVFSYPAGNVESTGSAGEPLYENSPEFTPYLETNLGQPTIQSFEQVGTKVNVTVEDERTLVRRNNTFLSLRDVFGKDLIYTLYYWKSSSSGKKTAKTNTNEFLIDVDKGENYCFSVQAVIPSRTVNRKSTDSPVECMGQEKGEFRE[about 150 residues left out]
B5: 15t15 (IL-15/TF/IL-15 single-chain chimeric polypeptide) (other)
chain: [about 120 residues left out]SGTTNTVAAYNLTWKSTNFKTILEWEPKPVNQVYTVQISTKSGDWKSKCFYTTDTECDLTDEIVKDVKQTYLARVFSYPAGNVESTGSAGEPLYENSPEFTPYLETNLGQPTIQSFEQVGTKVNVTVEDERTLVRRNNTFLSLRDVFGKDLIYTLYYWKSSSSGKKTAKTNTNEFLIDVDKGENYCFSVQAVIPSRTVNRKSTDSPVECMGQEKGEFRE[about 120 residues left out]

Experiments:
human CD16b = biological target: T1, human CD16b (human, UniProt O75015 17-200); experiment: flow cytometry on CHO cells stably expressing CD16b; detection with biotinylated anti-human tissue factor and PE streptavidin
T1 construct: whole, on cells; also called CHO cells expressing human CD16b

[1] = biological target: IL-2Rβ and common γ chain on 32Dβ cells; experiment: cell-based or functional assay

Sequence of human CD16b (O75015 17-200): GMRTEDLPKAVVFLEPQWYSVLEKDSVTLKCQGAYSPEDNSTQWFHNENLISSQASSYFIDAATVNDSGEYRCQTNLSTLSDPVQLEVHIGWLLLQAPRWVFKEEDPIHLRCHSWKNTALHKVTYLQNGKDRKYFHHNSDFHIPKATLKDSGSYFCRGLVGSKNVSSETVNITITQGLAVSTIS

| Binder | binding result (human CD16b) | EC50 of 32Dβ cell proliferation (WST1) [1] [nM] |
| --- | --- | --- |
| B1 | no binding (tested: 1.2 µg/mL) | – |
| B2 | – | 51.3 |
| B3 | – | 126 |
| B4 | – | 0.158 |
| B5 | – | 0.161 |
